The list shows a part of the results.
Assays:
Assay in all cases: glycan array binding signal (z-score within array); higher = stronger binding
Details in all cases: glycan notation: IUPAC condensed, linker removed
Fuc(a1-2)Gal = biological target: Fuc(a1-2)Gal
Summary of the method: (§1)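 The binding signal is a Z-score computed within each array. Data were drawn from 3228 arrays in the Consortium for Functional Glycomics database, restricted to those with a known protein sequence. Scores were averaged over arrays of the same protein sequence at different concentrations or buffers, and over linkers, and negative values can be taken as non-binding.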

Fuc(a1-2)Gal(b1-3)GalNAc = biological target: Fuc(a1-2)Gal(b1-3)GalNAc
Summary of the method: as §1

[1] = biological target: Fuc(a1-2)Gal(b1-3)GalNAc(b1-3)Gal
Summary of the method: as §1

[2] = biological target: Fuc(a1-2)Gal(b1-3)GalNAc(b1-3)Gal(a1-4)Gal(b1-4)Glc
Summary of the method: as §1

[3] = biological target: Fuc(a1-2)Gal(b1-3)GalNAc(b1-4)[Neu5Ac(a2-3)]Gal(b1-4)Glc
Summary of the method: as §1

Fuc(a1-2)Gal(b1-3)GlcNAc = biological target: Fuc(a1-2)Gal(b1-3)GlcNAc
Summary of the method: as §1

[4] = biological target: Fuc(a1-2)Gal(b1-3)GlcNAc(b1-3)Gal(b1-4)Glc
Summary of the method: as §1

[5] = biological target: Fuc(a1-2)Gal(b1-3)[Fuc(a1-4)]GlcNAc
Summary of the method: as §1

Fuc(a1-2)Gal(b1-4)Glc = biological target: Fuc(a1-2)Gal(b1-4)Glc
Summary of the method: as §1

Fuc(a1-2)Gal(b1-4)Glc6S = biological target: Fuc(a1-2)Gal(b1-4)Glc6S
Summary of the method: as §1

Fuc(a1-2)Gal(b1-4)GlcNAc = biological target: Fuc(a1-2)Gal(b1-4)GlcNAc
Summary of the method: as §1

[6] = biological target: Fuc(a1-2)Gal(b1-4)GlcNAc(b1-3)Gal(b1-4)GlcNAc
Summary of the method: as §1

[7] = biological target: Fuc(a1-2)Gal(b1-4)GlcNAc(b1-3)Gal(b1-4)GlcNAc(b1-3)Gal(b1-4)GlcNAc
Summary of the method: as §1

[8] = biological target: Fuc(a1-2)Gal(b1-4)GlcNAc6S
Summary of the method: as §1

[9] = biological target: Fuc(a1-2)Gal(b1-4)[Fuc(a1-3)]GlcNAc
Summary of the method: as §1

[10] = biological target: Fuc(a1-2)Gal(b1-4)[Fuc(a1-3)]GlcNAc(b1-3)Gal(b1-4)[Fuc(a1-3)]GlcNAc
Summary of the method: as §1

[11] = biological target: Fuc(a1-2)Gal(b1-4)[Fuc(a1-3)]GlcNAc(b1-3)Gal(b1-4)[Fuc(a1-3)]GlcNAc(b1-3)Gal(b1-4)[Fuc(a1-3)]GlcNAc
Summary of the method: as §1

Fuc(a1-2)Gal6S(b1-4)Glc = biological target: Fuc(a1-2)Gal6S(b1-4)Glc
Summary of the method: as §1

[12] = biological target: Fuc(a1-2)Gal6S(b1-4)Glc6S
Summary of the method: as §1

[13] = biological target: Fuc(a1-2)Gal6S(b1-4)GlcNAc
Summary of the method: as §1

Fuc(a1-2)[Gal(a1-3)]Gal = biological target: Fuc(a1-2)[Gal(a1-3)]Gal
Summary of the method: as §1

[14] = biological target: Fuc(a1-2)[Gal(a1-3)]Gal(b1-3)GlcNAc
Summary of the method: as §1

[15] = biological target: Fuc(a1-2)[Gal(a1-3)]Gal(b1-4)Glc
Summary of the method: as §1

[16] = biological target: Fuc(a1-2)[Gal(a1-3)]Gal(b1-4)GlcNAc
Summary of the method: as §1

[17] = biological target: Fuc(a1-2)[Gal(a1-3)]Gal(b1-4)[Fuc(a1-3)]GlcNAc
Summary of the method: as §1

[18] = biological target: Fuc(a1-2)[Gal(a1-4)]Gal(b1-4)GlcNAc
Summary of the method: as §1

[19] = biological target: Fuc(a1-2)[GalNAc(a1-3)]Gal
Summary of the method: as §1

[20] = biological target: Fuc(a1-2)[GalNAc(a1-3)]Gal(b1-3)GlcNAc
Summary of the method: as §1

[21] = biological target: Fuc(a1-2)[GalNAc(a1-3)]Gal(b1-4)Glc
Summary of the method: as §1

[22] = biological target: Fuc(a1-2)[GalNAc(a1-3)]Gal(b1-4)GlcNAc
Summary of the method: as §1

[23] = biological target: Fuc(a1-2)[GalNAc(a1-3)]Gal(b1-4)[Fuc(a1-3)]GlcNAc
Summary of the method: as §1

[24] = biological target: Fuc(a1-2)[GalNAc(a1-4)]Gal(b1-4)GlcNAc
Summary of the method: as §1

[25] = biological target: Fuc(a1-2)[GalNAc(b1-3)]Gal
Summary of the method: as §1

Fuc(a1-3)GlcNAc = biological target: Fuc(a1-3)GlcNAc
Summary of the method: as §1

[26] = biological target: Fuc(a1-3)[Gal(b1-4)]Glc6S
Summary of the method: as §1

[27] = biological target: Fuc(a1-3)[Gal(b1-4)]GlcNAc
Summary of the method: as §1

[28] = biological target: Fuc(a1-3)[Gal(b1-4)]GlcNAc(b1-2)Man(a1-3)[Fuc(a1-3)[Gal(b1-4)]GlcNAc(b1-2)Man(a1-6)]Man(b1-4)GlcNAc(b1-4)GlcNAc
Summary of the method: as §1

[29] = biological target: Fuc(a1-3)[Gal(b1-4)]GlcNAc(b1-2)Man(a1-6)[Gal(b1-4)GlcNAc(b1-2)Man(a1-3)]Man(b1-4)GlcNAc(b1-4)GlcNAc
Summary of the method: as §1

[30] = biological target: Fuc(a1-3)[Gal(b1-4)]GlcNAc(b1-3)Gal(b1-3)[Fuc(a1-4)]GlcNAc
Summary of the method: as §1

[31] = biological target: Fuc(a1-3)[Gal(b1-4)]GlcNAc(b1-4)Gal(b1-4)[Fuc(a1-3)]GlcNAc
Summary of the method: as §1

[32] = biological target: Fuc(a1-3)[Gal(b1-4)]GlcNAc(b1-4)Gal(b1-4)[Fuc(a1-3)]GlcNAc(b1-4)Gal(b1-4)[Fuc(a1-3)]GlcNAc
Summary of the method: as §1

[33] = biological target: Fuc(a1-3)[Gal(b1-4)]GlcNAc6S
Summary of the method: as §1

[34] = biological target: Fuc(a1-3)[Gal3S(b1-4)]Glc6S
Summary of the method: as §1

[35] = biological target: Fuc(a1-3)[Gal3S(b1-4)]GlcNAc
Summary of the method: as §1

[36] = biological target: Fuc(a1-3)[Gal3S(b1-4)]GlcNAc6S
Summary of the method: as §1

[37] = biological target: Fuc(a1-3)[GalNAc(b1-4)]GlcNAc
Summary of the method: as §1

Fuc(a1-4)GlcNAc = biological target: Fuc(a1-4)GlcNAc
Summary of the method: as §1

Fuc(b1-3)GlcNAc = biological target: Fuc(b1-3)GlcNAc
Summary of the method: as §1

Gal(a1-2)Gal = biological target: Gal(a1-2)Gal
Summary of the method: as §1

Gal(a1-3)Gal = biological target: Gal(a1-3)Gal
Summary of the method: as §1

Gal(a1-3)Gal(b1-3)GlcNAc = biological target: Gal(a1-3)Gal(b1-3)GlcNAc
Summary of the method: as §1

Gal(a1-3)Gal(b1-4)Glc = biological target: Gal(a1-3)Gal(b1-4)Glc
Summary of the method: as §1

Gal(a1-3)Gal(b1-4)GlcNAc = biological target: Gal(a1-3)Gal(b1-4)GlcNAc
Summary of the method: as §1

[38] = biological target: Gal(a1-3)Gal(b1-4)[Fuc(a1-3)]GlcNAc
Summary of the method: as §1

Gal(a1-3)GalNAc = biological target: Gal(a1-3)GalNAc
Summary of the method: as §1

[39] = biological target: Gal(a1-3)[Gal(a1-4)]Gal(b1-4)GlcNAc
Summary of the method: as §1

Gal(a1-4)Gal(b1-4)Glc = biological target: Gal(a1-4)Gal(b1-4)Glc
Summary of the method: as §1

Gal(a1-4)Gal(b1-4)GlcNAc = biological target: Gal(a1-4)Gal(b1-4)GlcNAc
Summary of the method: as §1

Gal(a1-4)GlcNAc = biological target: Gal(a1-4)GlcNAc
Summary of the method: as §1

Gal(a1-6)Glc = biological target: Gal(a1-6)Glc
Summary of the method: as §1

B1: NESD (Drosophila melanogaster), NP_610025.1 (protein)
chain: MGHHHHHHSSGVDLGTENLYFQSMMEVFTFEKSYLERLKEAEAVLSWEGAVMPASQVRSEWKSYVELKIEPAGWQAIWKIPRVICEDLKLRYPTIVYGYVEQVIFDELKAVFVVTAVQDSDVHLPESNEVSLVELWPTVQQENAALNVDTTAECIDRLRFFYTHVWMPWDKDYDDDRDWVQQHLQARIQLVCDLSKNRLPRPLALHMRTLLAEAKYIQQRLDYLELDLSDAESDDEAVELNDSVAEPARKQSKAGSANGCLNVSSLPVTDLMCLHLRMAIIRSEFEILENPEMRRAYSELQSNSLKRLRCSSGRTRQSEDLLVERNSISHVVTLPGKLQQQLELLKLAQTLVKPESKVQLSNTLQDVLSICQSNDDILLSPGEHTIKFLEHLNDNGSLRGLTQPEAILSPAADLSLLPVVCSSDEDSTLLVIDGDYTLSELVLDCRHVRRGILLRNGTLTMRGCRLLGDGSSSTQEGIVCMPGASVELKSCLIENFAVGVSMRPKSSAELGSVQFKTCKTGLELLEKSASVNLQGSKCSFENCALGILADGFVLGEQRTEKVLVLNKFSELQRYNEDNLLGNCSFYNCKKNVRVFNESGQLLAQRSHQQLLEDELGGENKENIQLV
Fuc(a1-2)Gal
  glycan array binding signal (z-score): 0.437
Fuc(a1-2)Gal(b1-3)GalNAc
  glycan array binding signal (z-score): -0.2
[1]
  glycan array binding signal (z-score): -0.402
[2]
  glycan array binding signal (z-score): -0.284
[3]
  glycan array binding signal (z-score): 0.056
Fuc(a1-2)Gal(b1-3)GlcNAc
  glycan array binding signal (z-score): -0.474
[4]
  glycan array binding signal (z-score): 0.799
[5]
  glycan array binding signal (z-score): -0.397
Fuc(a1-2)Gal(b1-4)Glc
  glycan array binding signal (z-score): -0.347
Fuc(a1-2)Gal(b1-4)Glc6S
  glycan array binding signal (z-score): -0.269
Fuc(a1-2)Gal(b1-4)GlcNAc
  glycan array binding signal (z-score): -0.028
[6]
  glycan array binding signal (z-score): -0.008
[7]
  glycan array binding signal (z-score): 0.571
[8]
  glycan array binding signal (z-score): 0.418
[9]
  glycan array binding signal (z-score): -0.379
[10]
  glycan array binding signal (z-score): -0.007
[11]
  glycan array binding signal (z-score): 0.007
Fuc(a1-2)Gal6S(b1-4)Glc
  glycan array binding signal (z-score): -0.164
[12]
  glycan array binding signal (z-score): 0.415
[13]
  glycan array binding signal (z-score): 0.152
Fuc(a1-2)[Gal(a1-3)]Gal
  glycan array binding signal (z-score): -0.145
[14]
  glycan array binding signal (z-score): -0.382
[15]
  glycan array binding signal (z-score): -0.426
[16]
  glycan array binding signal (z-score): -0.24
[17]
  glycan array binding signal (z-score): -0.398
[18]
  glycan array binding signal (z-score): -0.283
[19]
  glycan array binding signal (z-score): -0.285
[20]
  glycan array binding signal (z-score): -0.299
[21]
  glycan array binding signal (z-score): -0.185
[22]
  glycan array binding signal (z-score): -0.226
[23]
  glycan array binding signal (z-score): -0.127
[24]
  glycan array binding signal (z-score): -0.307
[25]
  glycan array binding signal (z-score): -0.255
Fuc(a1-3)GlcNAc
  glycan array binding signal (z-score): -0.095
[26]
  glycan array binding signal (z-score): 0.613
[27]
  glycan array binding signal (z-score): -0.33
[28]
  glycan array binding signal (z-score): -0.092
[29]
  glycan array binding signal (z-score): -0.6
[30]
  glycan array binding signal (z-score): -0.24
[31]
  glycan array binding signal (z-score): -0.078
[32]
  glycan array binding signal (z-score): -0.515
[33]
  glycan array binding signal (z-score): 0.043
[34]
  glycan array binding signal (z-score): 0.672
[35]
  glycan array binding signal (z-score): 0.229
[36]
  glycan array binding signal (z-score): 1.18
[37]
  glycan array binding signal (z-score): -0.514
Fuc(a1-4)GlcNAc
  glycan array binding signal (z-score): -0.117
Fuc(b1-3)GlcNAc
  glycan array binding signal (z-score): 0.021
Gal(a1-2)Gal
  glycan array binding signal (z-score): -0.013
Gal(a1-3)Gal
  glycan array binding signal (z-score): -0.269
Gal(a1-3)Gal(b1-3)GlcNAc
  glycan array binding signal (z-score): -0.304
Gal(a1-3)Gal(b1-4)Glc
  glycan array binding signal (z-score): -0.126
Gal(a1-3)Gal(b1-4)GlcNAc
  glycan array binding signal (z-score): -0.108
[38]
  glycan array binding signal (z-score): -0.573
Gal(a1-3)GalNAc
  glycan array binding signal (z-score): -0.191
[39]
  glycan array binding signal (z-score): -0.494
Gal(a1-4)Gal(b1-4)Glc
  glycan array binding signal (z-score): -0.242
Gal(a1-4)Gal(b1-4)GlcNAc
  glycan array binding signal (z-score): -0.141
Gal(a1-4)GlcNAc
  glycan array binding signal (z-score): 0.161
Gal(a1-6)Glc
  glycan array binding signal (z-score): -0.36

— the supplement of paper PMC8728848
